From paper PMC6212790
The other results are listed elsewhere or left out. At the low end of the ranking the order means little.

Target: T1, GST-Rok-C97-191 (UniProt O34857)
T1 sequence: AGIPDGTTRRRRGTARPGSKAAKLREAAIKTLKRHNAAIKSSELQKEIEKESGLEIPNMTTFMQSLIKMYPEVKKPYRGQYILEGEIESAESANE
Assay: protein binding microarray;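 note: rank score from −0.5 (least bound) to 0.5 (best bound)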
Conditions: Rok is a gene silencer of Bacillus subtilis; high values mean tight binding; most listed sequences are background and not binding sites; double strand, one strand shown

Sequence	binding signal
CTATCAAG	0.0537 E-score
TATTGCCA	0.149 E-score
CATGTCAG	0.0755 E-score
CAGTATGG	-0.0654 E-score
CAAAAAAG	-0.0716 E-score
CGAAATTA	0.31 E-score
CCGACCTC	-0.237 E-score
ATAACTTG	0.298 E-score
CCGGTCTC	-0.245 E-score
AAGAATAT	0.135 E-score
AAATCCAT	0.189 E-score
GGTCGCAA	0.0362 E-score
CGAAGTGC	-0.165 E-score
CGTAACTC	0.0679 E-score
CCTGCAAA	-0.143 E-score
AGAATACG	-0.0125 E-score
GCGTTGCC	-0.25 E-score
GATTGCGA	0.0546 E-score
TTCGCCAA	0.106 E-score
AATAATGT	0.203 E-score
CTAAAATC	0.326 E-score
ACTATAAC	0.211 E-score
CGGGGGAG	-0.241 E-score
CATAGCAC	-0.0051 E-score
AGTGGGCA	-0.0845 E-score

Sequence	binding signal
CAAAGCCA	-0.295 E-score
GCTGAACA	-0.137 E-score
CCATGGTC	-0.18 E-score
GATTTGAC	-0.0772 E-score
TATTACCA	0.272 E-score
CTGAGGCA	-0.168 E-score
GTAAATAC	0.336 E-score
GGCTATAC	-0.00424 E-score
CCCTAGGA	-0.175 E-score
CGAGGCAG	-0.215 E-score
GGTTTGTA	0.169 E-score
GATCTTCC	0.0218 E-score
AGAGTGTC	-0.0737 E-score
ATTCATTG	0.105 E-score
CACTCCTG	-0.247 E-score
GCGAAACA	-0.109 E-score
GCCGACCA	-0.195 E-score
ATCTCCTC	0.059 E-score
ATGACTCG	-0.021 E-score
GTAGAGTA	0.297 E-score
ATATTCGG	0.0383 E-score
ATTCTCCA	0.131 E-score
CTTGCAAG	0.00252 E-score
ACAACACT	0.223 E-score
AGAGCCTA	-0.0282 E-score

Sequence	binding signal
AACTGTCC	0.0229 E-score
GCCGGATA	0.146 E-score
GGTGCCGA	-0.297 E-score
ACATGGAC	-0.00942 E-score
GCCTGCGA	-0.254 E-score
ACACGGGC	0.0191 E-score
GGGCGGCA	-0.319 E-score
GGGCATTA	-0.117 E-score
CGCCCAAA	-0.114 E-score
CATGATAC	0.0758 E-score
GCGTAGGA	0.0265 E-score
AGAGGCTG	-0.199 E-score
ACCATGCG	-0.0709 E-score
GAAGCTAA	-0.056 E-score
GGATGTCA	-0.04 E-score
ATTTATCA	0.229 E-score
CAAACTCG	-0.0543 E-score
CCTTTTCG	0.0618 E-score
GCGTTGGA	-0.178 E-score
CTATGGGA	-0.243 E-score
AGCCTTTA	-0.0414 E-score
GTTTTCAA	-0.105 E-score
AAGAGACC	-0.126 E-score
CACATGTA	0.162 E-score
ATTTGCAA	0.0774 E-score

Sequence	binding signal
GATTCGTA	0.149 E-score
ATGGGGAG	-0.37 E-score
CTTGTGGC	-0.167 E-score
GGTGGCTA	0.0901 E-score
CGGCCATA	-0.0978 E-score
AACCGGGA	-0.285 E-score
ACGAGGCG	-0.133 E-score
ACGCGCGA	0.0223 E-score
CGGCGTCC	-0.151 E-score
AACCCGGG	-0.252 E-score
CCCGTAGG	-0.124 E-score
GAGGTGAA	-0.154 E-score
AGAGTTTC	-0.0267 E-score
CACGTAAC	-0.0392 E-score
CCCTGTCA	-0.229 E-score
TGGATTAA	0.0948 E-score
ACGTCCCG	-0.242 E-score
GGTAAAAC	0.121 E-score
GGCACAAC	-0.141 E-score
AGACAAAT	-0.0166 E-score
AAAGGCAT	-0.0738 E-score
GGACCACA	-0.0476 E-score
AAGCCTGG	-0.197 E-score
ACATTCCC	-0.0621 E-score
ACTTGGGG	0.0337 E-score

Sequence	binding signal
CAAGCAGC	-0.31 E-score
GGGCAGGA	-0.228 E-score
ATGAAAAA	-0.0951 E-score
AAACAGCT	0.0832 E-score
CCCCGGGA	-0.232 E-score
ACGTTCAT	-0.0242 E-score
ACGTATAG	0.226 E-score
CTCCAATC	-0.0262 E-score
ATTAATCG	0.109 E-score
AATTTAGA	0.198 E-score
ACTTATGA	0.192 E-score
ATGTCACA	-0.00652 E-score
GCTCTCCC	-0.216 E-score
AGGCAAGA	-0.255 E-score
AGATTCCG	0.131 E-score
ACGATGAT	0.0117 E-score
ATCAAGAT	0.0161 E-score
GCCCACCC	-0.242 E-score
CAGGGTAG	-0.0513 E-score
CCGTTCAG	-0.00769 E-score
CTGGGACC	-0.219 E-score
ACTCCCTC	-0.0848 E-score
CGATGACG	-0.128 E-score
AAAGTTAC	0.0701 E-score
AACTGTAA	0.168 E-score

Sequence	binding signal
CCGCCAAA	-0.219 E-score
CAATCGTC	-0.159 E-score
ACGATGAA	0.00189 E-score
GACATGCC	0.0128 E-score
ACGAATTC	0.072 E-score
AAGTTTAC	-0.0631 E-score
CAGGGTTC	-0.203 E-score
GTAGGCCA	-0.0884 E-score
ACGGAACA	-0.144 E-score
ACGTGTAC	-0.0357 E-score
GTCCAGTA	0.143 E-score
ATAGATCG	0.132 E-score
GGCGATTA	-0.109 E-score
CGCTGTAA	0.164 E-score
AAATTCGG	0.083 E-score
ATCTATAA	0.355 E-score
AACGCCCG	-0.065 E-score
CTGGCATC	-0.101 E-score
GTCTACAC	-0.042 E-score
CGCACGCA	-0.217 E-score
TGATAGAA	0.385 E-score
GTCGCGAC	-0.0778 E-score
AGGACAGA	-0.11 E-score
CAAATAAG	0.0433 E-score
CGCCGTTA	-0.19 E-score

Sequence	binding signal
AACGGATA	-0.00876 E-score
GGAGGTAC	0.014 E-score
ACGCGAGG	-0.269 E-score
ACATTGTC	0.0195 E-score
CGCACGAA	0.0122 E-score
ACACAGTG	0.0988 E-score
AACCGCTG	-0.311 E-score
CTCTTGAA	-0.261 E-score
ACCGAGGA	-0.259 E-score
CACGCAAG	-0.148 E-score
GATTAGAA	-0.0111 E-score
ACCATCAT	0.0551 E-score
GCCGGTTA	-0.173 E-score
CTTCATGA	-0.151 E-score
ACACATAC	0.256 E-score
ATCAGTTG	0.0096 E-score
CACTCCTA	0.107 E-score
ACCTATAC	0.166 E-score
AGATTGAA	-0.0266 E-score
AAAAAGGC	-0.00272 E-score
CAGGAAAA	-0.0662 E-score
CATACCGG	0.153 E-score
